PubChem BioAssay AID493035 (The Scripps Research Institute Molecular Screening Center, 2011)
Values joined by “and” are separate entries in the source; they are usually repeats but may differ in a detail not shown here. Identical values can stand only once. Hit rate of the full screen: of about 2,000 compounds, about 45 (2%) were called active.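 The calls were made as follows: active = inhibition above the mean of all tested compounds plus 3 SD (cut at about 49% in these data); inactive = the rest.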 This is one part of the list. Where a SMILES comes first, the peptide text is derived from it. The star is where a group is joined. Boc = CC(C)(C)OC(=O)*

Biological target: Perilipin-5 (Homo sapiens) + 1-acylglycerol-3-phosphate O-acyltransferase ABHD5 (Homo sapiens) (UniProt Q00G26+Q8WTS1)
Chain of UniProt Q00G26 (Q00G26 whole entry, looked up): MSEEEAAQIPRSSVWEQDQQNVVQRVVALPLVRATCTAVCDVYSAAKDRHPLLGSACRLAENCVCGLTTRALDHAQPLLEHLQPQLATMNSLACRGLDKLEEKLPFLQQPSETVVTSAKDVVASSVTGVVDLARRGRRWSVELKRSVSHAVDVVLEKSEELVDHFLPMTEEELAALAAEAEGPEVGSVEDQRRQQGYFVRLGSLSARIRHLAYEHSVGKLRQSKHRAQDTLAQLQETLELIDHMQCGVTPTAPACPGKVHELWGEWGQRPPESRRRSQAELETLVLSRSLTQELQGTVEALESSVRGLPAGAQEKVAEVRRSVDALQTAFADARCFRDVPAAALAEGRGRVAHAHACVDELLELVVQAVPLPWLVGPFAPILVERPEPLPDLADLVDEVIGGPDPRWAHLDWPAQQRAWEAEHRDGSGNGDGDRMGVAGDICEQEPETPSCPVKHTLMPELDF
Chain of UniProt Q00G26 (Q8WTS1 whole entry, looked up): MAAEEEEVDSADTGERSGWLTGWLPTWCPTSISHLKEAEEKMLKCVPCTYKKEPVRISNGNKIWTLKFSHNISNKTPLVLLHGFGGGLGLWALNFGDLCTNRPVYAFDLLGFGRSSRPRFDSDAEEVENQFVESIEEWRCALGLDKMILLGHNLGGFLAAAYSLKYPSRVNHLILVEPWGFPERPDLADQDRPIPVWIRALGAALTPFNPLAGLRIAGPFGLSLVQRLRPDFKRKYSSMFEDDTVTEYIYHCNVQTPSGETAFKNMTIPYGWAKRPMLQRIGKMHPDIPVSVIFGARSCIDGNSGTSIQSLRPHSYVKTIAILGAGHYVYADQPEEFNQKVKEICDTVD
Test: ABHD5-PLIN5 interaction inhibitors, pilot screen, cell lysate, split luciferase complementation, luminescence, NIH validation set (AID 493035);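 also: 0% = DMSO only wells while the 100% control is not stated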
Conditions: split G. princeps luciferase complementation, lysates, 4 h; at 7.9 µM, stronger effect = higher value

inhibition, active:
O=C(c1ccco1)N(CCC(c1ccccc1)c1ccco1)Cc1ccco1 (stereo not drawn) 58.6%
COc1ccc(CN(CCC(c2ccccc2)c2ccc(OC(C)C)cc2)C(=O)CCl)cc1OC (stereo not drawn) 67%

inhibition, inactive:
CN1[C@@H](CC(=O)c2ccccc2)CCC[C@H]1C[C@H](O)c1ccccc1 4.57%
c1ccc2[nH]c(-c3cscn3)nc2c1 -15.1%
CCC(C)NCCOCCOc1ccc(Cl)cc1Br (stereo not drawn) -7%
COc1cc(NC(=S)NN2CCN(C)CC2)cc(OC)c1OC -3.64%
CC1=NN(C(=O)c2ccc(Br)cc2)C(O)(c2ccccc2)C1 (stereo not drawn) 5.38%
CC12CC(c3ccccc3O1)C(C(=O)N1CCOCC1)C(=O)N2 (stereo not drawn) -15.3%
O=C(c1ccc(Cl)cc1)C1CCCN(Cc2ccc(Oc3ncccn3)cc2)C1 (stereo not drawn) 4.37%
O=C(OCCNC(=O)c1ccc2ccccc2n1)c1ccc(F)cc1 4.32%
COc1ccccc1C(O)c1nccn1C (stereo not drawn) -0.96%
COc1ccc2c(c1)[N+](C)(C)C(C)(C)C=C2C -0.6%
C#CCN1C(=O)C(O)(c2c(C)[nH]c3ccccc23)c2ccccc21 (stereo not drawn) -2.46%
Cn1c(=O)c2[nH]cnc2n(C)c1=O 4.42%
CN(C)CCC=C1c2ccccc2CCc2ccccc21 -18.3%
Cc1ccnc2c1NC(=O)c1cccnc1N2C1CC1 -6.42%
C#C[C@]1(O)CC[C@H]2[C@@H]3CCc4cc(OC5CCCC5)ccc4[C@H]3CC[C@@]21C -6.78%
COc1ccc(CN2CCC(=O)NC2=O)cc1 -1.7%
COc1cc(C(=O)OCCn2c(=O)c3c(ncn3CCN(C)C)n(C)c2=O)cc(OC)c1OC -2.69%
COc1ccc(-c2c[n+](CC(=O)OC3CC(C)CCC3C(C)C)c3n2CCC3)cc1 (stereo not drawn) 11.4%
O=C(COc1ccccc1)N1CCN(c2ccccc2)CC1 -2.97%
COC(=O)c1cc(OC)c(OC)cc1NC(=O)Nc1ccc(OC)cc1OC -2.97%
COc1ccc(C2C(=O)c3ccccc3C2=O)cc1 -1.24%
Cc1cccc(C)c1NC(=O)C1CCCCN1C (stereo not drawn) -9.47%
CCOC(=O)c1c(C)oc2cc(Br)c(OC(C)C(=O)OCC)cc12 (stereo not drawn) -0.05%
Nc1ccc(S(N)(=O)=O)cc1N 14.3%
Cc1ncc([N+](=O)[O-])n1CC(O)CCl (stereo not drawn) 2.35%
CN1C(C(=O)Nc2ccccn2)=C(O)c2sccc2S1(=O)=O 2.19%
CCc1ccc2oc(=O)cc(CN3CCC(C)CC3)c2c1 -10.3%
CCOC(=O)C1=C(N)Oc2c(oc(CO)cc2=O)C1c1ccc(F)c(F)c1 (stereo not drawn) -8.25%
C[C@]12CC[C@H]3C(=CCc4cc(O)ccc43)[C@@H]1CCC2=O 2.32%
CC(C)COCC1CC2(CC(C)(c3csc(N)n3)OC2=O)C(=O)O1 (stereo not drawn) -11.5%
COc1c(C)cc(C(=O)C2CCCN(Cc3ccc(Oc4ncccn4)cc3)C2)cc1C (stereo not drawn) -0.46%
COc1ccc(CNCCC(c2ccc(F)cc2)c2ccc(OC(C)C)cc2)cc1OC (stereo not drawn) -5.38%
CCOC(=O)C1C2C=CC3(CN(c4ccc(Cl)c(F)c4)C(=O)C13)O2 (stereo not drawn) -7.19%
O=C(O)CCSCCC(=O)O 2.26%
O=C(c1cc2cc(Br)ccc2o1)N1CCCCC1 -7.99%
CO[C@@]1(NC(=O)Cc2cccs2)C(=O)N2C(C(=O)O)=C(COC(N)=O)CS[C@@H]21 10.2%
CC(C)Oc1ccc(C(CC(=O)O)c2ccc(F)cc2)cc1 (stereo not drawn) -6.54%
COCCn1c(SCCOc2ccccc2)nc2ccccc2c1=O -6.17%
CC[N+]1(C)CC2CCC(C)(C1)C2(C)C (stereo not drawn) 4.08%
CC(C)(C)OC(=O)N1CCCC1C(=O)NC(Cc1ccccc1)C(=O)O (stereo not drawn) (Boc-Pro-Phe-OH; configuration not given here) -6.93%
CC(CCc1ccccc1)NC(=O)/C=C/c1ccccc1 (stereo not drawn) 0.97%
COc1cc(Cc2cnc(N)nc2N)cc(OC)c1OC -7.05% and -2.82%
CC(C)OC(=O)C1C(=O)CC(C)(O)C(C(=O)OC(C)C)C1c1cccc(O)c1 (stereo not drawn) -0.49%
COc1ccc(CCN2CNc3c(c(=O)n(C)c(=O)n3C)C2)cc1OC -3.84%
CCCCOC(=O)c1ccc(N)cc1 7.38%
O=C(CS(=O)(=O)Cc1ccccc1)NCc1ccc2c(c1)OCO2 -13.3%
Cc1ccc(-n2ncc3c(Nc4cccc(C(=O)O)c4)ncnc32)cc1 6.95%
NCCOc1ccccc1OCCN 1.13%
Cc1ccc2[nH]c3c(c2c1)CN(C(=O)CN1CCSCC1)CC3 22.9%
COc1cc(OC)cc(C(C)=O)c1 -4.4%
Cc1ccc2ncnc(NCCCCCC(=O)O)c2c1 3.77%
CCOc1ccc2ccccc2c1CNc1nnnn1C -4.46%
COc1ccc(OC(C)C(=O)Nc2ccc([N+](=O)[O-])cc2)cc1 (stereo not drawn) -3.09%
Cc1ccsc1C1NC(=O)c2ccccc2N1 (stereo not drawn) 0.58%
COc1ccc2oc(=O)c(C(=O)N3CCN(c4ccccc4)CC3)cc2c1 9.11%
O=C(NCCCCCc1nc2ccccc2[nH]1)c1ccccc1Cl 7.9%
O=C(Nc1cccc(-c2nc3ncccc3o2)c1)c1ccccc1 3.96%
Oc1ccc(Cl)cc1Cc1cc(Cl)ccc1O -16.1%
COc1ccc(OC(C)C(=O)Nc2ccccc2F)cc1 (stereo not drawn) 2.02%
COc1ccc(/C=C/C(=O)NC(=S)NN2CCCCC2c2cccnc2)cc1 (stereo not drawn) 6.52%
O=C(Nc1nc2ccccc2s1)c1ccc(F)cc1 -6.53%
CCn1c(/C=C/c2ccccc2)nc2ccccc2c1=O 14.5%
CCn1c2ccccc2c2cc(CC(N)=O)ccc21 -7.62%
N#C/C(C(N)=O)=c1/ccc2c(c1)N1C3=C(CCCC3)CC3CCCCC31N=2 (stereo not drawn) 25.4%
CC(=O)c1cccc2c(O)c(C3=Nc4ccccc4C3=O)[nH]c12 44.2%
Cc1ccc(/C=N/Nc2nc(C(C)(C)C)cs2)o1 -13.8%
CC(CCCC(C)(C)O)NC(=O)c1ccc(OC2CCN(C(=O)C3CC3)CC2)cc1 (stereo not drawn) -2.91%
COc1cc2c(cc1OC)C(c1ccc(-c3cc(Cl)ccc3Cl)o1)=NCC2 9.42%
CC(C)OC(=O)C1C2C=CC3(CN(CC4CCCO4)C(=O)C13)O2 (stereo not drawn) -2.14%
CC(C)COCC(CN(Cc1ccccc1)c1ccccc1)N1CCCC1 (stereo not drawn) -8.76%
CC(C)(C)c1csc(N/N=C/c2cccnc2)n1 -3.9%
NC12CC3CC(CC(C3)C1)C2 -3.26%
CN1CCN(C2=Nc3cc(Cl)ccc3Nc3ccccc32)CC1 -4.11%
O[C@@H](CNC[C@H](O)c1ccccc1)c1ccccc1 -2.9%
Cc1cccc(-n2c(Cc3ccccc3)n[nH]c2=S)c1 -3.13%
Cc1nc2ccccc2n1CC(=O)NC1CCCC1 -8.3%
O=C(Nc1cccc(Cl)c1)N1CCN2C(=O)c3ccccc3C12c1ccccc1 (stereo not drawn) 9.11%
CCn1ccnc1CN(C)Cc1cn(-c2cccc(C)c2)nc1-c1cccc(F)c1 1.16%
COc1cc(C(=O)N/C(=C\c2cn(C)c3ccccc23)C(=O)NCCCO)cc(OC)c1OC 1.02%
Cc1ccc2nc(N=C(N)N)nc(C)c2c1 -4.02%
CC1(C)CC(=O)c2cc(O)ccc2O1 -5.07%
c1cnc2c(c1)ccc1cccnc12 -1.81%
CCOc1ccc(OCCSc2nc3ccccc3[nH]2)cc1 -1.25%
CN1CCc2cccc3c2[C@H]1Cc1ccc(O)c(O)c1-3 6.48%
CC(C)C1CC(CCNCc2ccc(N(C)C)cc2)(c2ccccc2)CCO1 (stereo not drawn) -22.6%
CCC(NC(C)C)C(O)c1ccc(O)c(O)c1 (stereo not drawn) 4.08%
COc1ccccc1-c1c(C(F)(F)F)oc2cc(OC(=O)c3ccc([N+](=O)[O-])cc3)ccc2c1=O 29.5%
Cc1cc(Cl)cc2c1NC(=O)[C@]21[C@@H]2C(=O)N(Cc3ccccc3)C(=O)[C@@H]2[C@@H]2CCCN21 0.92%
N/C(=N\OC(=O)CCCOc1ccc(Cl)cc1Cl)c1ccccn1 -4.4%
COc1cc(C2Nc3ccccc3C(=O)N2c2ccccc2)ccc1O (stereo not drawn) 1.54%
Cc1ccc(-c2nn(-c3cccc(F)c3)cc2CN2CCN(c3ccccn3)CC2)o1 3.54%
Clc1cc(-c2ccc(/C=N/n3cnnc3)o2)ccc1Br 12.9%
COc1ccc(-c2c(NC(=O)c3ccco3)n(C)c3ccccc3c2=O)cc1 -7.54%
CSCCC(NC(C)=O)C(=O)Oc1ccc2c3c(c(=O)oc2c1)CCCC3 (stereo not drawn) 1.97%
CC(C)(Sc1cc(C(C)(C)C)c(O)c(C(C)(C)C)c1)Sc1cc(C(C)(C)C)c(O)c(C(C)(C)C)c1 -3.81%
CC(=O)O[C@H]1C[C@@]2(C)[C@@H](C[C@@H](O)[C@H]3[C@@]4(C)CC[C@@H](O)[C@@H](C)C4CC[C@@]32C)/C1=C(\CCC=C(C)C)C(=O)O (stereo partly drawn) -15.6%
